Assay results taken from the supplement of paper PMC4466236.
Over roughly 33,000 sequences, “E-score (dimensionless, -0.5 to 0.5)” has its median near -0.058; the highest 2% begin near 0.35. The list shows a part of the results.

Each sequence was assayed on MvaT (assay: PBM 8-mer E-score (mean of HK and ME arrays) (E-score (dimensionless, -0.5 to 0.5)); higher = stronger relative binding preference; most listed sequences are background and not binding sites).
Outline: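 Full-length P. aeruginosa MvaT carrying an N-terminal glutathione S-transferase tag was tested by protein binding microarray following a previously described protocol. Two universal double-stranded 60-mer arrays, ME and HK, were used, each with a constant 25-mer primer region and a variable 35-mer region covering all 8-mers. The rank-based E-score is the mean of the two arrays, parsed with a custom script. Its range runs from -0.5 to 0.5 for each 8-mer.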

Row | Sequence | PBM 8-mer E-score
1 | GACTTTGC | 0.127
2 | GACGGATC | -0.215
3 | AATACGTG | 0.22
4 | AGTATCTC | 0.0463
5 | AAAACATA | 0.354
6 | GCTTTAAC | -0.0229
7 | ATAAATTG | 0.369
8 | ATTGATTG | 0.116
9 | AAAACGTA | 0.142
10 | CGTTCACC | -0.181
11 | CCATTCCC | -0.0958
12 | CGTGAACG | -0.218
13 | CTAGGATA | 0.0479
14 | ACGCTATG | -0.101
15 | GGACCCAA | -0.123
16 | GCTATTCA | 0.062
17 | TAACCGTA | 0.137
18 | AGTCCGGG | -0.222
19 | CGTCGCCA | -0.175
20 | CTGCCTAC | -0.187
21 | ATCCAGGG | -0.18
22 | CGGGTGAA | -0.0314

Row | Sequence | PBM 8-mer E-score
23 | GGCCGGAC | -0.215
24 | GCCAGCTA | -0.199
25 | GAGAGAAA | -0.00143
26 | CCCGCGCG | -0.255
27 | GCGGGGTA | -0.189
28 | AATCGCCC | -0.185
29 | AGGATCAT | -0.000626
30 | AGCCCGGG | -0.207
31 | AACTCGTG | 0.0448
32 | AAACTGTT | 0.222
33 | AACATTCT | 0.137
34 | CTGGACAC | -0.122
35 | CAGAAGAA | -0.0363
36 | AATCCAGA | 0.102
37 | ATGCGGCG | -0.147
38 | GTCCTGAA | 0.0353
39 | CTATTCCA | 0.112
40 | TCGGACGA | -0.174
41 | ACTAAAAT | 0.39
42 | AGCAACTG | -0.123
43 | CGGTCATA | -0.0151
44 | AAGCACGT | 0.0308

Row | Sequence | PBM 8-mer E-score
45 | TAGCAAGA | -0.104
46 | ATTTGGAC | 0.0323
47 | GCTACTAC | -0.113
48 | CCGCGACA | -0.0527
49 | ATTACCCC | 0.0674
50 | GCAATCAA | 0.196
51 | TACAATGA | 0.137
52 | GGTGAGGA | -0.155
53 | CTAAATAA | 0.365
54 | CCAGATGG | -0.281
55 | CCATCTAC | -0.0528
56 | CTCGACGC | -0.138
57 | TAAGATTA | 0.211
58 | CTGTACAC | 0.000633
59 | ACGTTCAC | -0.151
60 | ACTATAGC | 0.085
61 | CGGAAATC | 0.0137
62 | AATGGCAA | 0.0523
63 | AGACGCTA | -0.147
64 | CCCGCCTC | -0.176
65 | CCCGGAAG | -0.224
66 | CATAGAGA | 0.0529

Row | Sequence | PBM 8-mer E-score
67 | CCGGACAG | -0.102
68 | ACCACCGC | -0.0733
69 | CAATTACA | 0.288
70 | CCTAGCAC | -0.283
71 | AATGACAC | -0.0902
72 | GGTAGGAC | -0.0621
73 | AGGTCACG | -0.245
74 | ATATTAGC | 0.352
75 | ATAGCGGC | -0.00235
76 | GGCACTCA | -0.06
77 | ATAGGGAA | 0.064
78 | CGACAAGA | -0.106
79 | CTCACTCA | -0.0753
80 | TGCGCGCA | -0.105
81 | ATCCTTCC | -0.122
82 | ATGGCTCG | -0.0679
83 | CAGCATGC | -0.307
84 | GAAGCCAA | -0.0473
85 | AGAACTAC | 0.129
86 | CACCGCTG | -0.148
